Results published in PubChem BioAssay AID1347073 (National Center for Advancing Translational Sciences (NCATS), 2019).
Out of some 45,000 compounds screened, about 200 (0.44%) were called active. Not shown: some 7% with an inconclusive outcome. Calls follow the shape of the dose curve; as a rule, active = well fitted activation curve with a large enough effect; inconclusive = small, poorly fitted or top-dose-only effect; inactive = no such curve, though single readings can be large or run the other way. The list shows a part of the results.

assay: qHTS of TDP-43 Inhibitors: NCGC Sytravon Library Screen; conditions: yeast TDP-43 toxicity rescue, BacTiter-Glo growth, 24 h; series mostly up to 46.1 µM; growth rescue (activation): at the top concentration; also: 0% is about no effect; nearly all actives have a fitted effect of over 55% in size
Procedure, shortened: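 TDP-43-expressing yeast, pregrown in raffinose, seeded at OD600 0.02 in galactose medium with compound for 24 hr at 30 deg C. Growth read by BacTiter-Glo luminescence, so rescue of toxicity appears as activation.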

Q: For `CC1CCN(Cc2nnnn2-c2ccc(Cl)cc2)CC1`, which “growth rescue (activation)” value is on record?
A: inactive: 9.13%

Q: For `COc1ccccc1-c1cnc(C(O)c2ccc(SC)cc2)[nH]1` (stereo unspecified), which “growth rescue (activation)” value is on record?
A: inactive: 9.54%

Q: Which “growth rescue (activation)” value does the source give for `Cc1ccc(Cl)cc1NC1=C/C(=N\S(=O)(=O)c2cccs2)c2ccccc2C1=O` here?
A: inactive: 1.2%

Q: For `COc1cc(OC)cc(N(C(=O)CNC(=O)c2ccco2)C(C(=O)NCC2CCCO2)c2ccccc2)c1` (stereo unspecified), which “growth rescue (activation)” value is on record?
A: inactive: -2.71%

Q: Which “growth rescue (activation)” value does the source give for `c1ccc(CCN=C2CCCc3c2[nH]c2ccccc32)cc1` here?
A: inactive: 18.4%

Q: Which “growth rescue (activation)” value does the source give for `Cc1ccc(OCCN(C)C(=O)CC2C(=O)NCCN2CC(C)(C)C)cc1` (stereo unspecified) here?
A: inactive: 4.76%

Q: Which “growth rescue (activation)” value does the source give for `O=C(CNc1cccc2ccccc12)N/N=C/c1ccc(C(=O)O)cc1` here?
A: inactive: 20.3%

Q: With `COc1ccc(/C=N/OCC(=O)N(Cc2ccccc2)c2ccccc2C(=O)O)cc1` as the molecule, how does the “growth rescue (activation)” value read?
A: inactive: 11.9%

Q: Which “growth rescue (activation)” value does the source give for `Cc1cccnc1NC(=O)Nc1cccc2ccccc12` here?
A: inactive: 34.8%

Q: With `Cn1c(CCNC(=O)c2cc(COc3ccc(F)c(F)c3)on2)nc2ccccc21` as the molecule, how does the “growth rescue (activation)” value read?
A: inactive: 9.21%

Q: With `O=C(N/C(=C/c1cccnc1)C(=O)N1CCOCC1)c1ccco1` as the molecule, how does the “growth rescue (activation)” value read?
A: inactive: -3.83%

Q: Which “growth rescue (activation)” value does the source give for `Cc1sc2ncnc(N(C)CCc3ccccn3)c2c1C` here?
A: inactive: 20.5%

Q: For `CC1N/C(=C\C(=O)c2ccccc2)N(O)C1(C)C` (stereo unspecified), which “growth rescue (activation)” value is on record?
A: inactive: 11.8%

Q: With `O=C(Nc1cccc2ncccc12)c1cc([N+](=O)[O-])ccc1Cl` as the molecule, how does the “growth rescue (activation)” value read?
A: inactive: 0.52%

Q: With `CC(=O)Nc1ccc(NC(=O)Cn2ccc([N+](=O)[O-])n2)cc1` as the molecule, how does the “growth rescue (activation)” value read?
A: inactive: -4.41%

Q: With `CCN(CC)S(=O)(=O)c1c(OC)cc(C)c(Cl)c1C` as the molecule, how does the “growth rescue (activation)” value read?
A: inactive: 3.65%

Q: With `COC(=O)c1ccc(CSc2ncnc3c2nnn3-c2ccc(F)cc2)o1` as the molecule, how does the “growth rescue (activation)” value read?
A: inactive: -0.716%

Q: Which “growth rescue (activation)” value does the source give for `O=S(=O)(c1ccccc1F)N1CCN(CC(O)c2ccccc2)CC1` (stereo unspecified) here?
A: inactive: 10.5%

Q: Which “growth rescue (activation)” value does the source give for `CCC(=O)N1CCC1(C)C(=O)Nc1cc(OC)ccc1OC` (stereo unspecified) here?
A: inactive: -1.5%

Q: For `C=CCN1C(=O)c2cccc3c(Br)ccc(c23)C1=O`, which “growth rescue (activation)” value is on record?
A: inactive: 9.55%

Q: With `COc1ccc(-c2cnc3c(NC=O)cc(-c4ccc(F)cc4)cn23)cc1OC` as the molecule, how does the “growth rescue (activation)” value read?
A: inactive: 21.6%

Q: With `COc1ccc(CNC(=O)Cn2nc([N+](=O)[O-])c(Br)c2C)cc1OC` as the molecule, how does the “growth rescue (activation)” value read?
A: inactive: -0.679%

Q: Which “growth rescue (activation)” value does the source give for `Cc1ccc(Cl)cc1NC(=O)CSc1sc2c(O)cc(=O)[nH]c2c1C#N` here?
A: inactive: 7.15%

Q: With `C=CCC1(CC=C)CCCN1Cc1nc(COc2ccccc2)no1` as the molecule, how does the “growth rescue (activation)” value read?
A: inactive: -4.18%

Q: With `CCN(CC(=O)Nc1cccc(OC)c1)CC(=O)Nc1ccccc1C` as the molecule, how does the “growth rescue (activation)” value read?
A: inactive: -12.4%

Q: With `Cc1ccc(S(=O)(=O)NCC(=O)OCC(=O)NCc2ccco2)cc1` as the molecule, how does the “growth rescue (activation)” value read?
A: inactive: 14.4%

Q: With `COc1ccc(Cl)cc1N1C(=O)/C(=C/c2sccc2C)N=C1SCC(=O)NC1CC1` as the molecule, how does the “growth rescue (activation)” value read?
A: inactive: -0.503%

Q: For `CN(Cc1nc2ccccc2[nH]1)C(=O)C1CCC(=O)N(CCc2cccc(F)c2)C1` (stereo unspecified), which “growth rescue (activation)” value is on record?
A: inactive: 13.3%

Q: For `O=C(O)c1cccc(S(=O)(=O)Nc2ccc(Oc3ccccc3)cc2)c1`, which “growth rescue (activation)” value is on record?
A: inactive: 32.1%

Q: For `O=C(COC(=O)c1cccc(F)c1)NCCC1=CCCCC1`, which “growth rescue (activation)” value is on record?
A: inactive: 21.3%

Q: For `O=C(NCCc1ccc(Cl)cc1)C1CCN(C(=O)c2ccc(F)cc2)CC1`, which “growth rescue (activation)” value is on record?
A: inactive: -0.366%

Q: For `CC(C)NC(=O)NC(=O)CSc1nncs1`, which “growth rescue (activation)” value is on record?
A: inactive: 2.61%

Q: Which “growth rescue (activation)” value does the source give for `COc1cc(NC(=O)CNC(=O)Cn2ccc3ccccc3c2=O)cc(OC)c1OC` here?
A: inactive: -5.17%

Q: Which “growth rescue (activation)” value does the source give for `CC/C(=N\Nc1ccnc2cc(Cl)ccc12)c1ccc(O)cc1` here?
A: inactive: 6.22%

Q: Which “growth rescue (activation)” value does the source give for `COC(=O)c1ccccc1OCCCCN1CC(C)OC(C)C1` (stereo unspecified) here?
A: inactive: -3.57%

Q: Which “growth rescue (activation)” value does the source give for `COc1ccc(/C=C/c2cc(C(=O)O)c3ccccc3n2)cc1` here?
A: inactive: -32.5%

Q: With `CCN1C(=O)/C(=C\c2cccc(OC(=O)c3ccco3)c2)SC1=S` as the molecule, how does the “growth rescue (activation)” value read?
A: inactive: -2.98%

Q: With `COc1ccc(-c2nc(N3CCN(C)CC3)sc2-c2ccc(OC)cc2)cc1` as the molecule, how does the “growth rescue (activation)” value read?
A: inactive: -6.15%

Q: For `CCOc1ncccc1C(=O)NCCc1ccc(S(N)(=O)=O)cc1`, which “growth rescue (activation)” value is on record?
A: inactive: 14.1%

Q: For `CC(=O)Nc1ccc(NC(=O)CSc2nnc(C)c(=O)n2N)cc1`, which “growth rescue (activation)” value is on record?
A: inactive: 2%

Q: For `CC(C)CNCC1OCc2ccccc2CO1`, which “growth rescue (activation)” value is on record?
A: inactive: 27.4%

Q: Which “growth rescue (activation)” value does the source give for `CC(C)(C)c1ccc(/C=C/C(=O)Nc2nncs2)cc1` here?
A: inactive: 7.33%

Q: With `O=C(COC(=O)c1ccc(Br)o1)NCC1CCCCC1` as the molecule, how does the “growth rescue (activation)” value read?
A: inactive: 14.8%

Q: Which “growth rescue (activation)” value does the source give for `COc1cc(N)c(Cl)cc1C(=O)OCC(=O)NC(=O)NCc1ccco1` here?
A: inactive: -23.6%

Q: With `COc1ccc(CNC(=O)CSc2nnc(C)c(=O)[nH]2)cc1` as the molecule, how does the “growth rescue (activation)” value read?
A: inactive: 13.5%

Q: With `OCCN1CCN(CC(O)COC(c2ccc(F)cc2)c2ccc(F)cc2)CC1` (stereo unspecified) as the molecule, how does the “growth rescue (activation)” value read?
A: inactive: 5.81%

Q: For `Cc1ccc(C)c(S(=O)(=O)ON2C(=O)c3ccccc3C2=O)c1`, which “growth rescue (activation)” value is on record?
A: inactive: -10.9%

Q: With `COc1ccc(C(CC(=O)NC(C)(C)C)n2cccc2)cc1` (stereo unspecified) as the molecule, how does the “growth rescue (activation)” value read?
A: inactive: 21.7%

Q: For `CC(C)(C)C(=O)c1cn(CC(=O)O)c2ccccc12`, which “growth rescue (activation)” value is on record?
A: inactive: -37.2%

Q: For `COc1ccc(C(=O)NC2CCN(CC(=O)N3CCCCC3)CC2)cc1`, which “growth rescue (activation)” value is on record?
A: inactive: 9.87%

Q: For `O=S(=O)(NCc1ccccc1)NCc1cccc(C(F)(F)F)c1`, which “growth rescue (activation)” value is on record?
A: inactive: 15.2%

Q: With `CNC(=S)N(Cc1cccs1)Cc1cc2cc(OC)c(OC)cc2[nH]c1=O` as the molecule, how does the “growth rescue (activation)” value read?
A: inactive: -22.6%

Q: With `O=C1N=C(N2CCCCC2)S/C1=C/C1=Cc2ccccc2OC1` as the molecule, how does the “growth rescue (activation)” value read?
A: inactive: 27.3%

Q: For `Cc1ccc(NC(=O)c2ccc(=O)[nH]c2)cc1S(=O)(=O)N1CCCCCC1`, which “growth rescue (activation)” value is on record?
A: inactive: 12.1%

Q: Which “growth rescue (activation)” value does the source give for `COc1cc(NC(=O)CSc2nc3ccccc3cc2C)c(C(=O)O)cc1OC` here?
A: inactive: 24.3%

Q: Which “growth rescue (activation)” value does the source give for `Cc1c(C(=O)N2CCC2(C)C(=O)O)oc2ccccc12` (stereo unspecified) here?
A: inactive: 4.07%

Q: For `C/C(=N\NC(=O)CSCc1ccc(Cl)cc1)c1ccc(NC(=O)c2ccccc2)cc1`, which “growth rescue (activation)” value is on record?
A: inactive: -1.21%

Q: With `NS(=O)(=O)c1cc(C(=O)N2CCNC(=O)C2)ccc1Cl` as the molecule, how does the “growth rescue (activation)” value read?
A: inactive: 14.9%

Q: With `OC(c1cccnc1)c1nc(/C=C/c2ccc(C(F)(F)F)cc2)cs1` (stereo unspecified) as the molecule, how does the “growth rescue (activation)” value read?
A: inactive: -0.684%

Q: With `CCc1ccc(CNC(=O)c2ccc(OC3CCN(C(=O)COC)CC3)cc2)nc1` as the molecule, how does the “growth rescue (activation)” value read?
A: inactive: 4.85%

Q: For `C=CCN1C(=O)C(O)(CC(=O)c2ccccn2)c2ccccc21` (stereo unspecified), which “growth rescue (activation)” value is on record?
A: inactive: 2.18%

Q: For `Cn1c(=O)c(=O)n(C)c2cc(S(=O)(=O)CCC(=O)Nc3cccc(C(F)(F)F)c3)ccc21`, which “growth rescue (activation)” value is on record?
A: inactive: -7.07%

Q: Which “growth rescue (activation)” value does the source give for `CC(=O)Nc1ccc(NS(=O)(=O)c2ccccc2)c2ccccc12` here?
A: inactive: -11.2%

Q: With `COc1ccccc1NC(=O)Cc1nnc(SCC(=O)Nc2nccs2)n1C` as the molecule, how does the “growth rescue (activation)” value read?
A: inactive: -5.47%

Q: Which “growth rescue (activation)” value does the source give for `Cc1ccc(C(=O)n2nnc3ccccc32)cc1[N+](=O)[O-]` here?
A: inactive: 10.2%

Q: For `CCCCN(CC)C(=O)c1ccccc1Oc1ccccc1`, which “growth rescue (activation)” value is on record?
A: inactive: 6.82%

Q: For `CN(CC(=O)NC1CCCC1)S(=O)(=O)c1cccc(Cl)c1`, which “growth rescue (activation)” value is on record?
A: inactive: 27.1%

Q: For `CCCc1cc(=O)[nH]c(Nc2ccc(Cl)cc2)n1`, which “growth rescue (activation)” value is on record?
A: inactive: -2.2%

Q: With `Cc1cccc(OCC(=O)Nc2ccc3c(c2)nc2n3CCOC2)c1` as the molecule, how does the “growth rescue (activation)” value read?
A: inactive: -4.04%

Q: For `CC(C)[C@H](NS(=O)(=O)c1ccccc1)C(=O)OCC(=O)Nc1ccc2c(c1)OCO2`, which “growth rescue (activation)” value is on record?
A: inactive: 4.48%

Q: With `Cc1ccccc1CN1C(=O)CS/C1=N/N=C/c1ccco1` as the molecule, how does the “growth rescue (activation)” value read?
A: inactive: -7.38%
